Measurements: US9873709B2 (priority 2013, dated 2018)
pKi: −log10 of the molar value.

target: isolated recombinant JAK1 kinase domain (Homo sapiens (Human), UniProt P23458); conditions: read-out: JAK1 Ki; isolated recombinant JAK1 kinase domain, 25 μM ATP
Sequence (P23458 875-1153): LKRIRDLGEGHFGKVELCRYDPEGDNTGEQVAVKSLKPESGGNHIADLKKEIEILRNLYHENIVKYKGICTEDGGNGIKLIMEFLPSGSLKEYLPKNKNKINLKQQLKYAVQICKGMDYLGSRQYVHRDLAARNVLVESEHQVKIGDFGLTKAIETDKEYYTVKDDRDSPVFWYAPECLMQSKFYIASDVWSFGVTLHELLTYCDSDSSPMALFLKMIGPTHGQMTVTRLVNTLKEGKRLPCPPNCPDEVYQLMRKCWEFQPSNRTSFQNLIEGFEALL

In order of falling pKi:
1. O=C(NCCCN1CCOCC1)c1ccc(Nc2nc3c(C4=CCN(C(=O)CCC(F)(F)F)CC4)cccn3n2)cc1 [Example 2-271, N-(3-morpholinopropyl)-4-[[8-[1-(4,4,4-trifluorobutanoyl)-3,6-dihydro-2H-pyridin-4-yl]-[1,2,4]triazolo[1,5-a]pyridin-2-yl]amino]benzamide]  9.32
2. O=C(CCC(F)(F)F)N1CC=C(c2cccn3nc(Nc4ccc(C(=O)N5CCCC5c5ccncc5)cc4)nc23)CC1 (stereo not drawn) [Example 2-273, 4,4,4-trifluoro-1-[4-[2-[4-[2-(4-pyridyl)pyrrolidine-1-carbonyl]anilino]-[1,2,4]triazolo[1,5-a]pyridin-8-yl]-3,6-dihydro-2H-pyridin-1-yl]butan-1-one]  9.31
3. O=C(CCC(F)(F)F)N1CC=C(c2cccn3nc(Nc4ccc(C(=O)N5CCCCC5Cc5ccccn5)cc4)nc23)CC1 (stereo not drawn) [Example 2-265, 4,4,4-trifluoro-1-[4-[2-[4-[2-(2-pyridylmethyl)piperidine-1-carbonyl]anilino]-[1,2,4]triazolo[1,5-a]pyridin-8-yl]-3,6-dihydro-2H-pyridin-1-yl]butan-1-one]  9.25
4. CC1CN(CCNC(=O)c2ccc(Nc3nc4c(C5=CCN(C(=O)CCC(F)(F)F)CC5)cccn4n3)cc2)CC(C)O1 (stereo not drawn) [Example 2-268, N-[2-(2,6-dimethylmorpholin-4-yl)ethyl]-4-[[8-[1-(4,4,4-trifluorobutanoyl)-3,6-dihydro-2H-pyridin-4-yl]-[1,2,4]triazolo[1,5-a]pyridin-2-yl]amino]benzamide]  9.22
5. CN1CCN(CCNC(=O)c2ccc(Nc3nc4c(C5=CCN(C(=O)CCC(F)(F)F)CC5)cccn4n3)cc2)CC1 [Example 2-270, N-[2-(4-methylpiperazin-1-yl)ethyl]-4-[[8-[1-(4,4,4-trifluorobutanoyl)-3,6-dihydro-2H-pyridin-4-yl]-[1,2,4]triazolo[1,5-a]pyridin-2-yl]amino]benzamide]  9.21
6. CN1CCC(CCNC(=O)c2ccc(Nc3nc4c(C5=CCN(C(=O)CCC(F)(F)F)CC5)cccn4n3)cc2)CC1 [Example 2-274, N-[2-(1-methyl-4-piperidyl)ethyl]-4-[[8-[1-(4,4,4-trifluorobutanoyl)-3,6-dihydro-2H-pyridin-4-yl]-[1,2,4]triazolo[1,5-a]pyridin-2-yl]amino]benzamide]  9.21
7. O=C(CCC(F)(F)F)N1CC=C(c2cccn3nc(Nc4ccc(C(=O)N5CCC(Cc6cccnc6)CC5)cc4)nc23)CC1 [Example 2-277, 4,4,4-trifluoro-1-[4-[2-[4-[4-(3-pyridylmethyl)piperidine-1-carbonyl]anilino]-[1,2,4]triazolo[1,5-a]pyridin-8-yl]-3,6-dihydro-2H-pyridin-1-yl]butan-1-one]  9.17
8. O=C(CCC(F)(F)F)N1CC=C(c2cccn3nc(Nc4ccc(C(=O)N5CCCCC5c5cccnc5)cc4)nc23)CC1 (stereo not drawn) [Example 2-280, 4,4,4-trifluoro-1-[4-[2-[4-[2-(3-pyridyl)piperidine-1-carbonyl]anilino]-[1,2,4]triazolo[1,5-a]pyridin-8-yl]-3,6-dihydro-2H-pyridin-1-yl]butan-1-one]  9.17
9. O=C(CCC(F)(F)F)N1CC=C(c2cccn3nc(Nc4ccc(C(=O)N(CCO)Cc5cccnc5)cc4)nc23)CC1 [Example 2-279, N-(2-hydroxyethyl)-N-(3-pyridylmethyl)-4-[[8-[1-(4,4,4-trifluorobutanoyl)-3,6-dihydro-2H-pyridin-4-yl]-[1,2,4]triazolo[1,5-a]pyridin-2-yl]amino]benzamide]  9.12
10. CN1CCC(OC(=O)c2ccc(Nc3nc4c(C5=CCN(C(=O)CCC(F)(F)F)CC5)cccn4n3)cc2)CC1 [Example 2-264, (1-methyl-4-piperidyl) 4-[[8-[1-(4,4,4-trifluorobutanoyl)-3,6-dihydro-2H-pyridin-4-yl]-[1,2,4]triazolo[1,5-a]pyridin-2-yl]amino]benzoate]  9.09
11. CC1CC(C)CN(CCNC(=O)c2ccc(Nc3nc4c(C5=CCN(C(=O)CCC(F)(F)F)CC5)cccn4n3)cc2)C1 (stereo not drawn) [Example 2-269, N-[2-(3,5-dimethyl-1-piperidyl)ethyl]-4-[[8-[1-(4,4,4-trifluorobutanoyl)-3,6-dihydro-2H-pyridin-4-yl]-[1,2,4]triazolo[1,5-a]pyridin-2-yl]amino]benzamide]  9.06
12. CN1CCC(N(C)C(=O)c2ccc(Nc3nc4c(C5=CCN(C(=O)CCC#N)CC5)cccn4n3)cc2)CC1 [Example 2-287, 4-[[8-[1-(3-cyanopropanoyl)-3,6-dihydro-2H-pyridin-4-yl]-[1,2,4]triazolo[1,5-a]pyridin-2-yl]amino]-N-methyl-N-(1-methyl-4-piperidyl)benzamide]  8.96
13. CNC(=O)C1CN(C(=O)c2ccc(Nc3nc4c(C5=CCN(C(=O)CCC(F)(F)F)CC5)cccn4n3)cc2)CCN1C (stereo not drawn) [Example 2-275, N,1-dimethyl-4-[4-[[8-[1-(4,4,4-trifluorobutanoyl)-3,6-dihydro-2H-pyridin-4-yl]-[1,2,4]triazolo[1,5-a]pyridin-2-yl]amino]benzoyl] piperazine-2-carboxamide]  8.94
14. O=C(CCC(F)(F)F)N1CC=C(c2cccn3nc(Nc4ccc(C(=O)N5CCCN(c6ccncc6)CC5)cc4)nc23)CC1 [Example 2-278, 4,4,4-trifluoro-1-[4-[2-[4-[4-(4-pyridyl)-1,4-diazepane-1-carbonyl]anilino]-[1,2,4]triazolo[1,5-a]pyridin-8-yl]-3,6-dihydro-2H-pyridin-1-yl]butan-1-one]  8.92
15. CNC(=O)C1CN(C)CCN1C(=O)c1ccc(Nc2nc3c(C4=CCN(C(=O)CCC(F)(F)F)CC4)cccn3n2)cc1 (stereo not drawn) [Example 2-276, N,4-dimethyl-1-[4-[[8-[1-(4,4,4-trifluorobutanoyl)-3,6-dihydro-2H-pyridin-4-yl]-[1,2,4]triazolo[1,5-a]pyridin-2-yl]amino]benzoyl] piperazine-2-carboxamide]  8.89
16. CN1CCC(N(C)C(=O)c2ccc(Nc3nc4c(C5=CCN(C(=O)CCC(F)(F)F)CC5)cccn4n3)cc2)CC1 [Example 2-288, N-methyl-N-(1-methyl-4-piperidyl)-4-[[8-[1-(4,4,4-trifluorobutanoyl)-3,6-dihydro-2H-pyridin-4-yl]-[1,2,4]triazolo[1,5-a]pyridin-2-yl]amino]benzamide]  8.88
17. CC(C)CN1CCN(C(=O)c2ccc(Nc3nc4c(C5=CCN(C(=O)CCC(F)(F)F)CC5)cccn4n3)cc2)CC1 [Example 2-266, 4,4,4-trifluoro-1-[4-[2-[4-(4-isobutylpiperazine-1-carbonyl)anilino]-[1,2,4]triazolo[1,5-a]pyridin-8-yl]-3,6-dihydro-2H-pyridin-1-yl]butan-1-one]  8.87
18. CN1CCC(N(C)C(=O)c2ccc(Nc3nc4c(C5=CCN(C(=O)CCC(F)(F)F)CC5)cccn4n3)cc2)C1 (stereo not drawn) [Example 2-267, N-methyl-N-(1-methylpyrrolidin-3-yl)-4-[[8-[1-(4,4,4-trifluorobutanoyl)-3,6-dihydro-2H-pyridin-4-yl]-[1,2,4]triazolo[1,5-a]pyridin-2-yl]amino]benzamide]  8.79
19. CCOC(=O)N1CC=C(c2cccn3nc(Nc4ccc(C(=O)NCCCN5CCN(C)CC5)cc4)nc23)CC1 [Example 2-291, ethyl 4-[2-[4-[3-(4-methylpiperazin-1-yl)propylcarbamoyl]anilino]-[1,2,4]triazolo[1,5-a]pyridin-8-yl]-3,6-dihydro-2H-pyridine-1-carboxylate]  8.72
20. CN1CCC(N(C)C(=O)c2ccc(Nc3nc4c(C5=CCN(C(=O)C6CCCC6)CC5)cccn4n3)cc2)CC1 [Example 2-281, 4-[[8-[1-(cyclopentanecarbonyl)-3,6-dihydro-2H-pyridin-4-yl]-[1,2,4]triazolo[1,5-a]pyridin-2-yl]amino]-N-methyl-N-(1-methyl-4-piperidyl)benzamide]  8.60
21. CN1CCC(N(C)C(=O)c2ccc(Nc3nc4c(C5=CCN(C(=O)C6CCC6)CC5)cccn4n3)cc2)CC1 [Example 2-282, 4-[[8-[1-(cyclobutanecarbonyl)-3,6-dihydro-2H-pyridin-4-yl]-[1,2,4]triazolo[1,5-a]pyridin-2-yl]amino]-N-methyl-N-(1-methyl-4-piperidyl)benzamide]  8.58
22. CN1CCC(N(C)C(=O)c2ccc(Nc3nc4c(C5=CCN(C(=O)OC6COC6)CC5)cccn4n3)cc2)CC1 [Example 2-283, oxetan-3-yl-4-[2-[4-[methyl-(1-methyl-4-piperidyl)carbamoyl]anilino]-[1,2,4]triazolo[1,5-a]pyridin-8-yl]-3,6-dihydro-2H-pyridine-1-carboxylate]  8.33
23. CCOC(=O)N1CC=C(c2cccn3nc(Nc4ccc(C(=O)N(C)C5CCN(C)C5)cc4)nc23)CC1 (stereo not drawn) [Example 2-292, ethyl 4-[2-[4-[methyl-(1-methylpyrrolidin-3-yl)carbamoyl]anilino]-[1,2,4]triazolo[1,5-a]pyridin-8-yl]-3,6-dihydro-2H-pyridine-1-carboxylate]  8.28
24. CCCC(=O)N1CC=C(c2cccn3nc(Nc4ccc(C(=O)N(C)C5CCN(C)CC5)cc4)nc23)CC1 [Example 2-289, 4-[[8-(1-butanoyl-3,6-dihydro-2H-pyridin-4-yl)-[1,2,4]triazolo[1,5-a]pyridin-2-yl]amino]-N-methyl-N-(1-methyl-4-piperidyl)benzamide]  8.24
25. CN1CCC(N(C)C(=O)c2ccc(Nc3nc4c(C5=CCN(C(=O)C6CCC(C#N)CC6)CC5)cccn4n3)cc2)CC1 (stereo not drawn) [Example 2-285, 4-[[8-[1-(4-cyanocyclohexanecarbonyl)-3,6-dihydro-2H-pyridin-4-yl]-[1,2,4]triazolo[1,5-a]pyridin-2-yl]amino]-N-methyl-N-(1-methyl-4-piperidyl)benzamide]  8.19
26. CN1CCC(N(C)C(=O)c2ccc(Nc3nc4c(C5=CCN(C(=O)N6CC7(COC7)C6)CC5)cccn4n3)cc2)CC1 [Example 2-286, N-methyl-N-(1-methyl-4-piperidyl)-4-[[8-[1-(2-oxa-6-azaspiro[3.3]heptane-6-carbonyl)-3,6-dihydro-2H-pyridin-4-yl]-[1,2,4]triazolo[1,5-a]pyridin-2-yl]amino]benzamide]  8.05
27. CN1CCC(N(C)C(=O)c2ccc(Nc3nc4c(C5=CCN(c6ccccc6)CC5)cccn4n3)cc2)CC1 [Example 2-284, N-methyl-N-(1-methyl-4-piperidyl)-4-[[8-(1-phenyl-3,6-dihydro-2H-pyridin-4-yl)-[1,2,4]triazolo[1,5-a]pyridin-2-yl]amino]benzamide]  7.91
